#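 Dose response: 5 concentrations. Exposure: 48 h. Format: 96-well plates. Endpoint: linear interpolation; highest concentration if not reached. Abbreviation: GI50, concentration required for 50% inhibition of growth. TGI is the concentration that stops growth completely.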
# Tested on: NCI-H322M lung
# Experiment: inhibition of tumour cell growth, NCI panel, 48 h
SMILES,GI50 [µM],TGI [µM]
O=C(c1ccc(Cl)cc1)C(c1c[nH]c2ccccc12)c1c[nH]c2ccccc12,12.1,24.6
CCOP(=O)(OCC)O[C@H]1CC[C@]2(C)[C@H]3CC[C@@H]4[C@@H]([C@](C)(O)CCC=C(C)C)CC[C@@]4(C)[C@]3(C)CC[C@H]2C1(C)C,14.9,28.6
O=C(COc1ccc(NC(=O)Nc2ccc(Cl)c(Cl)c2)cc1)N=Nc1c(O)[nH]c2ccc(Br)cc12,2.04,4.72
CN1CCN(c2ccc3c(c2)nc(NNC(=O)c2ncccn2)c2cccn23)CC1,0.357,4.21
N#CC1=C(c2cccs2)Nc2c(c(-c3ccccc3)nn2-c2ccccc2)C12C(=O)Nc1ccc(Cl)cc12 (stereo not given),13,31.1

# From PubChem BioAssay (NCI)
